# Test results as given in PubChem BioAssay AID488969 (Vanderbilt High Throughput Screening Facility, 2010).
# The full ranking holds about 110,000 compounds; the median of “z-score” is about -0.1, and the highest 2% start at about 2. Some of the results follow. Calls of active or inactive are those of the source.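 The calls were made as follows: active = z-score in the third read window above 3 or below -3; inactive = the rest.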
# Target: Metabotropic glutamate receptor 8 (Rattus norvegicus) (UniProt P70579)
# Test: rat mGluR8 modulators via GIRK flux, primary screen, cell-based, thallium flux, HTS (AID 488969)
# Details: HEK293 rat mGluR8, GIRK (G protein-gated inwardly rectifying potassium channel) thallium flux, FluoZin2; at 10 µM; stronger effect = higher value; submaximal glutamate (EC20) added with thallium
# Chain of UniProt P70579 (P70579 whole entry, looked up): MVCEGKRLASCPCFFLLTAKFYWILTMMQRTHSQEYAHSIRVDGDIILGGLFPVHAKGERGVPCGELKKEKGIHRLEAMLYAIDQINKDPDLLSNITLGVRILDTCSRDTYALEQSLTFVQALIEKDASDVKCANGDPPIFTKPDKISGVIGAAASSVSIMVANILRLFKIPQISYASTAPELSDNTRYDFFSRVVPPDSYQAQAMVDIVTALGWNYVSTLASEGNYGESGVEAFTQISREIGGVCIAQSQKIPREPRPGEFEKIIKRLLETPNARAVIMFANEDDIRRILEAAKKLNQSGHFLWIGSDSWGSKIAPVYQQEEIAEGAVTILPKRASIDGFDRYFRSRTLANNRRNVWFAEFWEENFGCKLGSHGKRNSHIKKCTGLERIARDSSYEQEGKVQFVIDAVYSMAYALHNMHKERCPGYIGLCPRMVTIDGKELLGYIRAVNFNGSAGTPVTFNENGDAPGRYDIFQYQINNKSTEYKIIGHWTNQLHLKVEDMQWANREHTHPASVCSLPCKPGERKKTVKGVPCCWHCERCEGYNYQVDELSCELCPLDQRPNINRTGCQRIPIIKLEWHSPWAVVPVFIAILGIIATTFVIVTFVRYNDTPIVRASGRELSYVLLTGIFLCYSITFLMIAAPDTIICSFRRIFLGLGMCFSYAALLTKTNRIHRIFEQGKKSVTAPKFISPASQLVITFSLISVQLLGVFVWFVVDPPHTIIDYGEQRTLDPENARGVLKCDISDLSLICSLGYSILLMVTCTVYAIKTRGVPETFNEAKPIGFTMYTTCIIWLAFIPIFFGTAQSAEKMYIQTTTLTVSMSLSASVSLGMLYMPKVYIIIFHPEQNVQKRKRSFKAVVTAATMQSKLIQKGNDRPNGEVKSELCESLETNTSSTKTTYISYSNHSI
row,Structure (SMILES),z-score
1,CCOC(=O)C(C)(C)N(Cc1ccc(C)cc1)S(=O)(=O)c1ccc(Cl)c([N+](=O)[O-])c1,-0.285
2,COC(=O)C(C)Sc1nc2c(c(-c3ccc(OC)cc3)c1C#N)-c1ccccc1C2=O (stereo unspecified),-0.206
3,COc1cccc(/C=N/n2c(=S)n(C)c3cc(C)c(C)cc32)c1OC,0.276
4,CC(C)(C)C(=O)Nc1nc(=S)ss1,1.95
5,O=C(C1CCC1)N1CCc2cc(S(=O)(=O)Nc3ccc4c(c3)OCCO4)ccc21,-0.0481
6,COC(=O)C(CC(C(=O)OC)C(=O)OC)C(=O)OC,-0.382
7,CCOC(=O)C1CCN(C(=O)COc2ccc(N(C)S(=O)(=O)c3cccs3)cc2)CC1,-1.31
8,CCOc1ccc(OCC)c(NC(=O)C2CCN(S(=O)(=O)c3cnc[nH]3)CC2)c1,-1.07
9,CN1CCn2c1nc(N1CCCCC1)nc2=O,0.365
10,Cc1nn(-c2ccccc2)c(-c2ccccc2)c1C(=O)O,-0.044
11,CCC(C)(C)n1nnnc1C(c1cc2cc(C)ccc2[nH]c1=O)N1CCCc2ccccc21 (stereo unspecified),-0.094
12,Cc1ccc(Oc2ccccc2/C=N/O)cc1,-0.167
13,O=C(NC1CCCCC1)N(CCO)Cc1cc2cc3c(cc2[nH]c1=O)OCCO3,-0.338
14,Cc1ccc(C(c2nnnn2CS(=O)(=O)c2ccc(C)cc2)N2CCC(C)CC2)cc1 (stereo unspecified),-0.869
15,CCOC(=O)Cc1csc(SC(C)C(=O)Nc2ccc(NC(C)=O)cc2)n1 (stereo unspecified),-0.132
16,CCC(CC)C(=O)N(c1ccc(F)cc1)C1C=CS(=O)(=O)C1 (stereo unspecified),0.277
17,Cc1nc(NC(=O)c2ccc([N+](=O)[O-])cc2Cl)sc1C(=O)N(C)C,-0.0927
18,Clc1ccc(-c2nnc(C34CC5CC(CC(C5)C3)C4)o2)cn1,-0.0891
19,CCOC(=O)c1ccccc1NC(=O)c1ccc2c(=O)n3c(nc2c1)CCCCC3,-1.75

row,Structure (SMILES),z-score
1,COc1nc(C)ccc1-c1noc(-c2ccccn2)n1,0.308
2,COc1ccc(N2C(=O)CC2(/C=C/c2ccccc2OC)C(=O)NC2CCCC2)cc1 (stereo unspecified),-0.0628
3,CCCNC(=O)C(=O)Nc1ccc(N(C)C)cc1,-0.0526
4,Cc1ccc(-n2nnnc2SCC(=O)N2CCN(C(=O)c3ccco3)CC2)c(C)c1,-0.886
5,COc1cccc(NC2=NCC(=O)N2Cc2cccs2)c1,0.854
6,O=C(CSc1nccc2ccccc12)N1CCN(c2ccccn2)CC1,-1.6
7,Cc1cccc(N2CC(C(=O)Nc3nnc(SCC(=O)Nc4cc(C)on4)s3)CC2=O)c1 (stereo unspecified),-0.258
8,C(=N\c1nccs1)/c1c[nH]c2ccccc12,-0.861
9,CCCCC1CCC(C(=O)NC2CCS(=O)(=O)C2)CC1 (stereo unspecified),0.0229
10,COc1ccc2nc(NCCO)[nH]c2c1,-0.322
11,CCN(CC)CCN(Cc1cc2cc(C)ccc2[nH]c1=O)C(=S)NCc1ccco1,0.381
12,COc1ccc(CCC(=O)NCc2ccco2)cc1,-0.337
13,CC1Cc2ccccc2N1C(=O)COc1cccc(-n2cnnn2)c1 (stereo unspecified),-0.404
14,O=S1(=O)CCC(SCc2nc3sccn3c2Br)C1 (stereo unspecified),-0.55
15,COC(=O)c1cccc(NC(=O)C(C)N2C(=O)c3ccccc3C2=O)c1 (stereo unspecified),0.0709
16,CCOc1[nH]c(/N=C/c2ccco2)c(C#N)c1C#N,-0.212
17,CC1CCCN(CCOCCOc2ccc(Br)cc2Cl)C1 (stereo unspecified),0.0933
18,C=C1C2(C(=O)NCc3ccco3)CCC(C2)C1(C)C (stereo unspecified),-0.0997
19,COc1ccc(C(=O)c2ccccc2)c2c(O)ccc(C(=O)c3ccccc3)c12,-0.153

row,Structure (SMILES),z-score
1,O=c1[nH]c2ccccc2nc1N1CCOCC1,0.306
2,Cc1ccc(S(=O)(=O)Cc2ccc(C(=O)N3CCc4ccccc4C3)o2)cc1,-0.31
3,CCCCOc1ccc(C(=O)Nc2ccc(N3CCN(C(=O)C(C)C)CC3)cc2)cc1,0.167
4,O=C(Cc1cc(=O)[nH][nH]1)N/N=C/c1cccc(Cl)c1Cl,-0.524
5,CC(=O)Nc1ccc(NC(=O)c2ccccc2CC[N+](=O)[O-])cc1,0.119
6,Cc1onc(-c2ccccc2)c1C(=O)N1CCCN(C(=O)c2c(-c3ccccc3)noc2C)CC1,-0.0397
7,Cc1cc(C)nc(NC(=O)c2c(-c3c(Cl)cccc3Cl)noc2C)n1,-1.14
8,Fc1cccc(C2NN=C(c3ccccc3)S2)c1 (stereo unspecified),active: 6.37
9,CC(OC(=O)c1cccc(NS(C)(=O)=O)c1)C(=O)Nc1ccc(N2CCOCC2)cc1 (stereo unspecified),-0.447
10,CCOc1ccccc1NC(=O)Cn1c(=O)n(-c2ccccc2)c(=O)c2oc3ccccc3c21,-0.369
11,CCn1c2ccccc2c2cc(/C=N/n3cnnc3)ccc21,-1.04
12,CCCn1c(=O)[nH]c(=O)c2c1nc(-c1ccccc1OC(F)F)n2CCOC,-0.729
13,CCOC(=O)c1ccc([N+](=O)[O-])cc1NC(C)=O,0.368
14,COc1ccc(-n2c(N)c(-c3nc4ccccc4n3C)sc2=S)cc1,0.161
15,CC1CC(C)CN(CCC(=O)Nc2cccc(Cl)c2)C1 (stereo unspecified),1.2
16,Cc1nc(C)c(C(=O)OCC(=O)N2CCN(c3ccccc3)CC2)s1,-0.392
17,O=C(Nc1ccc(OC(=O)c2ccccc2)c(-c2nc3ccccc3s2)c1)c1ccccc1,-0.0491
18,O=C(NCCOC(=O)c1ccccc1C(=O)OCCNC(=O)c1cccnc1)c1cccnc1,-0.243
